One molecule from US20050228169A1 (published 2005) can be followed below.

Assay [1] concerns the target T1, histidine-tagged KIAA1006 C-terminal truncated polypeptide (1-1157AA) (human, UniProt Q9Y2K9 1-1157).
T1 construct: Expressed in sf9 insect cells by baculovirus and purified on cobalt resin; The junction of the tag is as noted for m1; also called C-terminal truncated product; C-terminal truncation product of KIAA1006 polypeptide
T1 sequence: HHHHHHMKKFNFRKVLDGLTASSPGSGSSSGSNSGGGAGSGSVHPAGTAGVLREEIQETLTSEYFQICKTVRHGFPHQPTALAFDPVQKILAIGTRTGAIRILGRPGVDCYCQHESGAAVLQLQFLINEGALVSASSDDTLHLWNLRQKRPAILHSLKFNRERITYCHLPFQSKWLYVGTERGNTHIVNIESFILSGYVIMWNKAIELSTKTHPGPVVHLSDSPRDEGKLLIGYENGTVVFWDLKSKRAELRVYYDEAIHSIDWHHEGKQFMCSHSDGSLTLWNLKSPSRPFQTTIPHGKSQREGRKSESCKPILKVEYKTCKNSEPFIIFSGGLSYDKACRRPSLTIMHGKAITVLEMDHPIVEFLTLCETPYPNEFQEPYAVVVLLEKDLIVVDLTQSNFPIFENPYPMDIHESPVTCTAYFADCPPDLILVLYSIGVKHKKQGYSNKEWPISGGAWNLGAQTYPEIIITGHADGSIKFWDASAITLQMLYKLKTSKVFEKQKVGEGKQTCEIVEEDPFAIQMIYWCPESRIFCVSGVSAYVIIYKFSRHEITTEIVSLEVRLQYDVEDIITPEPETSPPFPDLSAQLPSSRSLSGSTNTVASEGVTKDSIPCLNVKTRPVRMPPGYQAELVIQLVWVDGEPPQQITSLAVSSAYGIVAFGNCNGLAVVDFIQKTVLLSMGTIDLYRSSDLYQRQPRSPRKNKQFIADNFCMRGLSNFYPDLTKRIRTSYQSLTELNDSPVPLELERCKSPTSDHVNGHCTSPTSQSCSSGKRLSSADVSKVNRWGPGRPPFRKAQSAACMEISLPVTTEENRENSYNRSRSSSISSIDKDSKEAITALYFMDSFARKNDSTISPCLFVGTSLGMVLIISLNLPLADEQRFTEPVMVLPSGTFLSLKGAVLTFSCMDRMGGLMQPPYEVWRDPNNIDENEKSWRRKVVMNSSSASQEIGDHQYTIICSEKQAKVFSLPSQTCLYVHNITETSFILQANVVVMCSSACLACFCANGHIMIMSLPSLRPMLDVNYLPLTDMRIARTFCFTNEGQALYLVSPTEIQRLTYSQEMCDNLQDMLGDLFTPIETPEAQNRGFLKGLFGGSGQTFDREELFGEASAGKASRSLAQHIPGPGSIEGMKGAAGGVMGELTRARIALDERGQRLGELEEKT
The experiment in a line: GST pull-down: GST (17 µg) on glutathione-Sepharose, 6 hours at 4° C.; Western blot with anti-penta His antibody. Here is the method:
(§1) KIAA1006 polypeptide (the histidine-tagged KIAA1006 polypeptide described above) and its C-terminal truncated product (the histidine-tagged C-terminal truncation product of KIAA1006 polypeptide described above) purified with a cobalt resin were respectively mixed with glutathione-Sepharose (bed volume 10 μl) to which GST (17 μg) was bound, stirred for 6 hours at 4° C., and then centrifuged. The obtained supernatants (GST-glutathione-Sepharose unadsorbed fractions) were respectively added to glutathione-Sepharose (bed volume 10 μl) to which GST-syntaxin-1a (17 μg) was bound, and after stirring for 16 hours at 4° C., the resultants were subjected to centrifugation. The fractions adsorbed to GST-glutathione-Sepharose and the fractions adsorbed to GST-syntaxin-1a-glutathione-Sepharose were eluted with SDS-PAGE sample buffer, respectively, and the binding of syntaxin-1a to KIAA1006 polypeptide or to its C-terminal truncation product was analyzed by Western blotting using anti-penta His antibody (Qiagen).
(§2) For the SDS-PAGE, 4-12% Bis-Tris Gel (NOVEX) was used. The detection of a secondary antibody that was labeled with horseradish peroxidase was carried out using ECL Western blotting detection reagents (Amersham Pharmacia Biotech).
(Immunoblotting shows a protein as a band on a membrane.)

Assay [2] has as its target T2, histidine-tagged KIAA1006 polypeptide (1-1186AA) (human, UniProt Q9Y2K9 1-1186).
T2 construct: Expressed in sf9 insect cells by baculovirus and purified on cobalt resin as a soluble protein; also called full length ORF of KIAA1006
T2 sequence: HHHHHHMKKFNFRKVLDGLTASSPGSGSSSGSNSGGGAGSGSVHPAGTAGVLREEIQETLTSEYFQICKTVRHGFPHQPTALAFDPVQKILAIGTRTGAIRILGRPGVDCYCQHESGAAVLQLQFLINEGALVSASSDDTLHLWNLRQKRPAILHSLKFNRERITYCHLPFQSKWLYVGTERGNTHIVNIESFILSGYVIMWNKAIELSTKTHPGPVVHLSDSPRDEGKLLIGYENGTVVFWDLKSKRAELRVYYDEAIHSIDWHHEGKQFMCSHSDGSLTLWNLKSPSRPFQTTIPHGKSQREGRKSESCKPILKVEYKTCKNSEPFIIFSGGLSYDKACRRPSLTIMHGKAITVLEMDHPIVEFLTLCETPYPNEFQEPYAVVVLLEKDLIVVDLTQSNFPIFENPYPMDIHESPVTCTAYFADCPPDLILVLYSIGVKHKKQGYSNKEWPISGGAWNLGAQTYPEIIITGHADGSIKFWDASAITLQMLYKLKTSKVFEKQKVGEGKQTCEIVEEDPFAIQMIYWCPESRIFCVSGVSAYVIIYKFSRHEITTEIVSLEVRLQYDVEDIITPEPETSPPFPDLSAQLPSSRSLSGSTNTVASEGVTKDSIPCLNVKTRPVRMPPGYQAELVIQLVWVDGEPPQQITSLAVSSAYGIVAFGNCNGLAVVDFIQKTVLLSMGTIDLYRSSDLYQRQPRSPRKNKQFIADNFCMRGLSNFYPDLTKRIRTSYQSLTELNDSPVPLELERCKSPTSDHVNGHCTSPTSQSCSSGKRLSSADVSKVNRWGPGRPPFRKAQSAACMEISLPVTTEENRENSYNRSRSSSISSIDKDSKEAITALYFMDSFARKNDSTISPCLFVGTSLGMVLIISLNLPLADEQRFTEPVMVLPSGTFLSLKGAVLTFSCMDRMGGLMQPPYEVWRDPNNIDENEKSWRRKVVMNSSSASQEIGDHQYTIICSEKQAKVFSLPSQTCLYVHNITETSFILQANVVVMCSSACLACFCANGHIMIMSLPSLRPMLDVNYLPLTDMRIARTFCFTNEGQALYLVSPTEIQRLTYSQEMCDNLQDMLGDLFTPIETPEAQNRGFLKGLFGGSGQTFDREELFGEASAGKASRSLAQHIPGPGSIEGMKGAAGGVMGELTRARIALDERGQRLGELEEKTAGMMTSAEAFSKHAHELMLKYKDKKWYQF
The description is as above. Here is the method:
as §1, §2

B1: glutathione S-transferase (GST) (other)
chain: not shown
notes: Control protein
With B1, the binding result in assay [1] and in assay [2] was “no binding” each time.
